# Out of some 150,000 compounds screened, about 540 (0.36%) showed an effect of 50% or more. This is one part of the list.
# System: Plasmodium falciparum
# Assay: Primary screen in NF54 nanoGlo assay, in single point, at 2uM, 72h; a lower Z score goes with more inhibition
# Assay type: functional, Erythrocyte
# Details: timepoint 72 hour
Structure (SMILES),% Inhibition,Z score
CCOC(=O)N[C@@H](CNc1cc(C)ccn1)C1CC1,-8%,0.88
C[C@H](NC(=O)c1cc2n(n1)CCCN(Cc1ccc(F)cc1)C2=O)C(=O)N1CCOCC1,-11%,1.72
COc1ccccc1[C@H](CO)NC(=O)CN1C(=O)Cc2ccccc21,29%,-3.24
CC(C)C[C@@H](CN(C)C)NC(=O)C(=O)Nc1ccn(Cc2ccncc2)n1,-7%,1.15
CN1C[C@@H](NC(=O)c2cnc(Cc3c(Cl)cccc3Cl)nc2O)CCC1=O,7%,-0.79
COCC(=O)N1CCC(C(=O)N(C)[C@@H](C)c2c(C)nn(C)c2C)CC1,-5%,0.6
O=C(Cc1noc2ccccc12)N1CCC[C@H](c2nnc3ccccn23)C1,-13%,1.19
Cc1cnc([C@H](C)Nc2ccnc(N(C)C)n2)o1,-4%,0.38
Cc1cc(NC(=O)NCCc2nc(C)oc2C)on1,0%,0
CCN(C[C@H]1CCCO1)C(=O)c1ccc(-c2ccc(C(C)=O)cn2)cc1,-11%,1.58
COCCCn1cnc2c(-c3ccccc3)cn(CC(=O)Nc3ccc4c(c3)OCO4)c2c1=O,10%,-1.46
CC(=O)N1CCc2cc(S(=O)(=O)N3CCNC(C)C3C)ccc21 (centres undefined),-11%,1.96
C[C@@H](Cn1cncn1)NC(=O)Nc1c(-c2ccccc2)cnn1C(C)(C)C,5%,-0.65
CCNc1ccnc(-c2ccc(OC)nc2)n1,-2%,0.37
CCNC(=O)N(CC(=O)N1CCc2sccc2C1COc1ccc(C(C)C)cc1)CC1CCCO1 (centres undefined),-4%,0.5
CCn1cncc1-c1c(-c2ccccc2)ncn1CCc1c[nH]cn1,9%,-1.28
CCOc1cccc(-c2ccc3nc(-c4ccc(Cl)cc4)c(CCC(=O)N[C@@H](C)CC)n3c2)c1,4%,-0.58
CC[C@H]1CN(C)CCCN1S(=O)(=O)c1cc(OC)ns1,8%,-0.96
COCC1(C)CCN(C(=O)[C@@H]2NCc3ncncc32)CC1,-8%,1.65
CCCC1CCC(C(=O)Nn2c(-c3cccc(OC)c3)nc3ccccc3c2=O)CC1 (centres undefined),-2%,0.33
Cc1cccc([C@@H]2CC(=O)N(CC(=O)NCc3ccccc3)C(=O)N2)c1,1%,-0.11
O=C(NCCc1ccc2c(c1)OCO2)c1cnn2c(-c3cccs3)ccnc12,-7%,0.96
